Results from the RNAGym collection of RNA variant scans (doi:10.1073/pnas.2313332121).
This sample is rich in variants without activity.

B1: TPR 5TU (parent)
chain: GGAUCUUCUCGAUCUAACAAAAAAGACAAAUCUGCCACAAAGCUUGAGAGCAUCUUCGGAUGCAGAGGCGGCAGCCUUCGGUGGCGCGAUAGCGCCAACGUUCUCAACUAUGACACGCAAAACGCGUGCUCCGUUGAAUGGAGUUUAUCAUG

Variants of: B1
Test: polymerase ribozyme fitness, log enrichment relative to wild type (log ratio); higher = more active; in vitro selection for triplet polymerase activity
Procedure, shortened: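 Genotype fitness is the logarithm of its enrichment divided by wild-type enrichment, using inverse-variance-weighted averages of replicates. That logarithm is base 2. Enrichment was measured by Illumina sequencing of input and output libraries from one triplicate in vitro selection round, with frozen incubation at −7 °C, on PCR-built, transcribed mutant libraries of each subunit of a heterodimeric triplet polymerase ribozyme, retaining genotypes with ≥10 input reads and ≥1 read per output.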

Row | Variant | polymerase ribozyme fitness (log ratio)
1 | C35G C54U A60U C85A | ≤ -4.2
2 | C35G C63U A91G C93A A97U C108U C123G G124C | ≤ -4.2
3 | C35G C69A C76A C118G U127C | ≤ -4.2
4 | C35G C76U C85U G141U U145G U151C | ≤ -4.2
5 | C35G C85G A122U U134C | ≤ -4.2
6 | C35G C96U U145C | ≤ -4.2
7 | C35G G42U C95A | ≤ -4.2
8 | C35G G46A C75G G94C C105G | ≤ -4.2
9 | C35G G48A A52G C57A G58A A60C A73C A91U C96U | ≤ -4.2
10 | C35G G48U G70A G92C C96G | ≤ -4.2
11 | C35G G48U G70A G92C C96G U146A | ≤ -4.2
12 | C35G G50C U55G C96U A110G U145C | ≤ -4.2
13 | C35G G59A C75U A89G C96A | ≤ -4.2
14 | C35G G59A C85A A106G G126U | ≤ -4.2
15 | C35G G62A U101G | ≤ -4.2
16 | C35G G68A A91U U144C | ≤ -4.2
17 | C35G G68A G128C G133A | ≤ -4.2
18 | C35G G83A A89C A142U | ≤ -4.2
19 | C35G G84A C93G U101G | ≤ -4.2
20 | C35G U45A C57A C87A C93G A107U C125U | ≤ -4.2
21 | C35G U53G U134G | ≤ -4.2

Row | Variant | polymerase ribozyme fitness (log ratio)
22 | C35G U55G G67A G92U | ≤ -4.2
23 | C35G U55G G81A A98G U102A | ≤ -4.2
24 | C35G U90A C96A U104G A119U C125A | ≤ -4.2
25 | C35G U90A G143A | ≤ -4.2
26 | C35U A40C G68A G70U C75G C76G U82C G94C C95A U102G G126U | ≤ -4.2
27 | C35U A40G C51U G81C C87A | ≤ -4.2
28 | C35U A40U G42C C54A C76G C85A | ≤ -4.2
29 | C35U A41G C93U A98G A120C C129G A142C | ≤ -4.2
30 | C35U A41U C95U A113U G117C A150C | ≤ -4.2
31 | C35U A49C U53A G68A C116U G141U | ≤ -4.2
32 | C35U A49C U53G C75G G92A A119U A120G G133U A138C | ≤ -4.2
33 | C35U A52C C123U | -1.31
34 | C35U A52C U55A C93U C149A | ≤ -4.2
35 | C35U A66G C96G U104A U135A U146C C149G | ≤ -4.2
36 | C35U A73U G88U C108G | ≤ -4.2
37 | C35U A91G | -2.83
38 | C35U C38A U61A A66U C69G C76A U135A U148G | ≤ -4.2
39 | C35U C43G C93A C103G | ≤ -4.2
40 | C35U C43G G48A U148G | ≤ -4.2
41 | C35U C51U A52C C54G C118G | ≤ -4.2
42 | C35U C54G C57G C69U U82A A91U G92A A113G | ≤ -4.2

Row | Variant | polymerase ribozyme fitness (log ratio)
43 | C35U C54G G68A C75G G84U C103A C108U A147U | ≤ -4.2
44 | C35U C57A G133C G141C | ≤ -4.2
45 | C35U C63G G68A U102G A122G | ≤ -4.2
46 | C35U C69U A91G C118A | -3.8
47 | C35U C75G U127C | ≤ -4.2
48 | C35U C76A G94C C105U | ≤ -4.2
49 | C35U C85G A137U | ≤ -4.2
50 | C35U C85U C93G G94U C99U U104A G128A C131G G143U | ≤ -4.2
51 | C35U C95U C96G | -1.52
52 | C35U C116A | -0.104
53 | C35U G42A A60U G67C A107G | ≤ -4.2
54 | C35U G46A A119G A121U | -1.45
55 | C35U G46C G50U C57G C75U C114U C132A | ≤ -4.2
56 | C35U G50C | -3.9
57 | C35U G50C C85U A107U C123U | ≤ -4.2
58 | C35U G50C C93G G126U G136C G141A | ≤ -4.2
59 | C35U G50C G59U C87U U151G | ≤ -4.2
60 | C35U G50C G81A A98C A107U A110G | ≤ -4.2
61 | C35U G50U U56A G68A C85U A137C | ≤ -4.2
62 | C35U G58C G71A C93G | -3.09
63 | C35U G62C C75G C87G | ≤ -4.2

Row | Variant | polymerase ribozyme fitness (log ratio)
64 | C35U G74A G140C | ≤ -4.2
65 | C35U G86A A91C G126U G141U U145C | ≤ -4.2
66 | C35U G86A C87G C132U | ≤ -4.2
67 | C35U G86C A137C | ≤ -4.2
68 | C35U G88A A115C A119G | -3.86
69 | C35U G124U | -1.25
70 | C35U U44A U77A G84A C96U A142C | ≤ -4.2
71 | C35U U45A A66U C69A G126C G143A | ≤ -4.2
72 | C35U U45G G59C C75U A89U G92C A138G G143U | ≤ -4.2
73 | C35U U53A | -0.557
74 | C35U U55A A91C | ≤ -4.2
75 | C35U U56A C57A A97U C123U U130C | -0.0554
76 | C35U U77G C87A U104G | ≤ -4.2
77 | C35U U78G A142C | ≤ -4.2
78 | C35U U78G G88A G117A A137G | ≤ -4.2
79 | C36A A40U G81A C87G A89C C118G A122G G141U G143A U146G | ≤ -4.2
80 | C36A A49C C87G C96A U144A | ≤ -4.2
81 | C36A A49U C51U U90G G94A C125U G126C | ≤ -4.2
82 | C36A A64U A107U U139A G140C | ≤ -4.2
83 | C36A A73U C95G A122U A147U | ≤ -4.2
